Laboratory results as given in the supplement of paper PMC8728848.
The list shows a part of the results.

How the values were obtained:
Assay in all cases: glycan array binding signal (z-score within array); higher = stronger binding
Conditions in all cases: glycan notation: IUPAC condensed, linker removed
[1] = biological target: Fuc(a1-3)[Gal(b1-4)]GlcNAc
How it was run: (§1)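 Arrays were curated from the Consortium for Functional Glycomics database, 3228 in total, and kept only where the protein sequence was available. Binding is expressed as a within-array Z-score. This score was averaged across arrays of the same protein sequence at different concentrations or buffers and across linkers, and negative values can be read as non-binding.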

[2] = biological target: Fuc(a1-3)[Gal(b1-4)]GlcNAc(b1-4)Gal(b1-4)[Fuc(a1-3)]GlcNAc
How it was run: as §1

[3] = biological target: Fuc(a1-3)[Gal(b1-4)]GlcNAc(b1-4)Gal(b1-4)[Fuc(a1-3)]GlcNAc(b1-4)Gal(b1-4)[Fuc(a1-3)]GlcNAc
How it was run: as §1

[4] = biological target: Fuc(a1-3)[Gal3S(b1-4)]GlcNAc
How it was run: as §1

[5] = biological target: Fuc(a1-3)[GalNAc(b1-4)]GlcNAc
How it was run: as §1

[6] = biological target: Fuc(a1-4)GlcNAc
How it was run: as §1

[7] = biological target: Fuc(b1-3)GlcNAc
How it was run: as §1

[8] = biological target: Gal(a1-2)Gal
How it was run: as §1

[9] = biological target: Gal(a1-3)Gal
How it was run: as §1

[10] = biological target: Gal(a1-3)Gal(b1-3)GlcNAc
How it was run: as §1

[11] = biological target: Gal(a1-3)Gal(b1-4)Glc
How it was run: as §1

[12] = biological target: Gal(a1-3)Gal(b1-4)GlcNAc
How it was run: as §1

[13] = biological target: Gal(a1-3)Gal(b1-4)[Fuc(a1-3)]GlcNAc
How it was run: as §1

[14] = biological target: Gal(a1-3)GalNAc
How it was run: as §1

[15] = biological target: Gal(a1-3)[Gal(a1-4)]Gal(b1-4)GlcNAc
How it was run: as §1

[16] = biological target: Gal(a1-4)Gal(b1-4)Glc
How it was run: as §1

[17] = biological target: Gal(a1-4)Gal(b1-4)GlcNAc
How it was run: as §1

[18] = biological target: Gal(a1-4)GlcNAc
How it was run: as §1

[19] = biological target: Gal(a1-6)Glc
How it was run: as §1

[20] = biological target: Gal(b1-2)Gal
How it was run: as §1

[21] = biological target: Gal(b1-3)Gal
How it was run: as §1

[22] = biological target: Gal(b1-3)GalNAc
How it was run: as §1

[23] = biological target: Gal(b1-3)GalNAc(b1-3)Gal(a1-4)Gal(b1-4)Glc
How it was run: as §1

[24] = biological target: Gal(b1-3)GalNAc(b1-4)Gal(b1-4)Glc
How it was run: as §1

[25] = biological target: Gal(b1-3)GalNAc(b1-4)[Neu5Ac(a2-3)]Gal(b1-4)Glc
How it was run: as §1

[26] = biological target: Gal(b1-3)GlcNAc
How it was run: as §1

[27] = biological target: Gal(b1-3)GlcNAc(b1-3)Gal(b1-4)Glc
How it was run: as §1

[28] = biological target: Gal(b1-3)GlcNAc(b1-3)Gal(b1-4)GlcNAc
How it was run: as §1

[29] = biological target: Gal(b1-3)[Fuc(a1-4)]GlcNAc
How it was run: as §1

[30] = biological target: Gal(b1-3)[Fuc(a1-4)]GlcNAc(b1-3)Gal(b1-4)GlcNAc
How it was run: as §1

[31] = biological target: Gal(b1-3)[Fuc(a1-4)]GlcNAc(b1-3)Gal(b1-4)[Fuc(a1-3)]GlcNAc
How it was run: as §1

[32] = biological target: Gal(b1-3)[GlcNAc(b1-6)]GalNAc
How it was run: as §1

[33] = biological target: Gal(b1-3)[Neu5Ac(a2-6)]GalNAc
How it was run: as §1

[34] = biological target: Gal(b1-3)[Neu5Ac(a2-6)]GlcNAc(b1-6)Gal(b1-4)Glc
How it was run: as §1

[35] = biological target: Gal(b1-3)[Neu5Ac(b2-6)]GalNAc
How it was run: as §1

[36] = biological target: Gal(b1-4)GalNAc(a1-3)[Fuc(a1-2)]Gal(b1-4)GlcNAc
How it was run: as §1

[37] = biological target: Gal(b1-4)GalNAc(b1-3)[Fuc(a1-2)]Gal(b1-4)GlcNAc
How it was run: as §1

[38] = biological target: Gal(b1-4)Glc
How it was run: as §1

[39] = biological target: Gal(b1-4)Glc6S
How it was run: as §1

[40] = biological target: Gal(b1-4)GlcNAc
How it was run: as §1

[41] = biological target: Gal(b1-4)GlcNAc(b1-2)Man(a1-3)[Gal(b1-4)GlcNAc(b1-2)Man(a1-6)]Man(b1-4)GlcNAc(b1-4)GlcNAc
How it was run: as §1

[42] = biological target: Gal(b1-4)GlcNAc(b1-3)Gal(b1-4)Glc
How it was run: as §1

[43] = biological target: Gal(b1-4)GlcNAc(b1-3)Gal(b1-4)GlcNAc
How it was run: as §1

[44] = biological target: Gal(b1-4)GlcNAc(b1-3)Gal(b1-4)GlcNAc(b1-3)Gal(b1-4)GlcNAc
How it was run: as §1

[45] = biological target: Gal(b1-4)GlcNAc(b1-3)Gal(b1-4)[Fuc(a1-3)]GlcNAc(b1-3)Gal(b1-4)[Fuc(a1-3)]GlcNAc
How it was run: as §1

[46] = biological target: Gal(b1-4)GlcNAc(b1-3)GalNAc
How it was run: as §1

[47] = biological target: Gal(b1-4)GlcNAc(b1-3)[Gal(b1-4)GlcNAc(b1-6)]GalNAc
How it was run: as §1

[48] = biological target: Gal(b1-4)GlcNAc(b1-6)Gal(b1-4)GlcNAc(b1-6)GalNAc
How it was run: as §1

[49] = biological target: Gal(b1-4)GlcNAc(b1-6)GalNAc
How it was run: as §1

[50] = biological target: Gal(b1-4)GlcNAc(b1-6)[Gal(b1-3)]GalNAc
How it was run: as §1

[51] = biological target: Gal3S(b1-3)GalNAc
How it was run: as §1

[52] = biological target: Gal3S(b1-3)GlcNAc
How it was run: as §1

[53] = biological target: Gal3S(b1-3)[Fuc(a1-4)]GlcNAc
How it was run: as §1

[54] = biological target: Gal3S(b1-4)Glc
How it was run: as §1

[55] = biological target: Gal3S(b1-4)Glc6S
How it was run: as §1

[56] = biological target: Gal3S(b1-4)GlcNAc
How it was run: as §1

[57] = biological target: Gal3S(b1-4)GlcNAc6S
How it was run: as §1

[58] = biological target: Gal3S6S(b1-4)GlcNAc
How it was run: as §1

[59] = biological target: Gal3S6S(b1-4)GlcNAc6S
How it was run: as §1

[60] = biological target: Gal4S(b1-4)GlcNAc
How it was run: as §1

[61] = biological target: Gal4S6S(b1-4)GlcNAc
How it was run: as §1

[62] = biological target: Gal6S(b1-4)Glc
How it was run: as §1

[63] = biological target: Gal6S(b1-4)Glc6S
How it was run: as §1

[64] = biological target: Gal6S(b1-4)GlcNAc
How it was run: as §1

[65] = biological target: GalNAc(a1-3)Gal
How it was run: as §1

[66] = biological target: GalNAc(a1-3)GalNAc
How it was run: as §1

[67] = biological target: GalNAc(b1-3)Gal(a1-4)Gal(b1-4)GlcNAc
How it was run: as §1

[68] = biological target: GalNAc(b1-3)GalNAc
How it was run: as §1

[69] = biological target: GalNAc(b1-4)GlcNAc
How it was run: as §1

[70] = biological target: Glc(a1-4)Glc
How it was run: as §1

[71] = biological target: Glc(a1-6)Glc(a1-6)Glc
How it was run: as §1

[72] = biological target: Glc(b1-4)Glc
How it was run: as §1

[73] = biological target: Glc(b1-6)Glc
How it was run: as §1

[74] = biological target: GlcA(b1-3)Gal
How it was run: as §1

[75] = biological target: GlcA(b1-6)Gal
How it was run: as §1

B1: FaeGad (Escherichia coli) (protein)
chain: WMTGDFNGSVDIGGSITADDYRQKWEWEVGTGLNGFGSVLNDLTNGGTKLTITVTGNKPILLGRTKEAFATPVTSGVDGIPHIAFTDYEGASVELRNPDGETEKGLTYFVLPMKNAEGTKVGSVKVNASYAGALGRGGVTSADGELMSLFAEGSHAIFYGGLPTNVKNSELKGGSAAAARTELFGSLSKNDILGQIQRVNANITSLVNVPGSFNENMAYTDGSVVSVAYALGIANGQTIEATFNQAVTTSTQWSAPLNVAITYY
glycan array binding signal (z-score) [1]: -0.218
glycan array binding signal (z-score) [2]: -0.079
glycan array binding signal (z-score) [3]: -0.402
glycan array binding signal (z-score) [4]: -0.164
glycan array binding signal (z-score) [5]: -0.266
glycan array binding signal (z-score) [6]: -0.295
glycan array binding signal (z-score) [7]: -0.101
glycan array binding signal (z-score) [8]: 0.214
glycan array binding signal (z-score) [9]: 0.094
glycan array binding signal (z-score) [10]: -0.346
glycan array binding signal (z-score) [11]: -0.266
glycan array binding signal (z-score) [12]: -0.496
glycan array binding signal (z-score) [13]: -0.344
glycan array binding signal (z-score) [14]: -0.072
glycan array binding signal (z-score) [15]: -0.381
glycan array binding signal (z-score) [16]: -0.336
glycan array binding signal (z-score) [17]: -0.289
glycan array binding signal (z-score) [18]: -0.054
glycan array binding signal (z-score) [19]: 0.615
glycan array binding signal (z-score) [20]: 0.234
glycan array binding signal (z-score) [21]: 0.404
glycan array binding signal (z-score) [22]: 0.383
glycan array binding signal (z-score) [23]: -0.007
glycan array binding signal (z-score) [24]: 0.156
glycan array binding signal (z-score) [25]: -0.114
glycan array binding signal (z-score) [26]: -0.282
glycan array binding signal (z-score) [27]: 0.448
glycan array binding signal (z-score) [28]: -0.338
glycan array binding signal (z-score) [29]: -0.179
glycan array binding signal (z-score) [30]: -0.391
glycan array binding signal (z-score) [31]: 0.979
glycan array binding signal (z-score) [32]: 0.41
glycan array binding signal (z-score) [33]: 0.2
glycan array binding signal (z-score) [34]: -0.216
glycan array binding signal (z-score) [35]: 0.159
glycan array binding signal (z-score) [36]: -0.241
glycan array binding signal (z-score) [37]: -0.333
glycan array binding signal (z-score) [38]: 0.496
glycan array binding signal (z-score) [39]: 0.601
glycan array binding signal (z-score) [40]: -0.194
glycan array binding signal (z-score) [41]: -0.426
glycan array binding signal (z-score) [42]: 0.629
glycan array binding signal (z-score) [43]: -0.425
glycan array binding signal (z-score) [44]: -0.197
glycan array binding signal (z-score) [45]: -0.343
glycan array binding signal (z-score) [46]: -0.214
glycan array binding signal (z-score) [47]: -0.405
glycan array binding signal (z-score) [48]: -0.211
glycan array binding signal (z-score) [49]: 0.098
glycan array binding signal (z-score) [50]: 0.025
glycan array binding signal (z-score) [51]: 0.169
glycan array binding signal (z-score) [52]: -0.003
glycan array binding signal (z-score) [53]: -0.196
glycan array binding signal (z-score) [54]: -0.052
glycan array binding signal (z-score) [55]: 0.221
glycan array binding signal (z-score) [56]: -0.267
glycan array binding signal (z-score) [57]: -0.132
glycan array binding signal (z-score) [58]: -0.184
glycan array binding signal (z-score) [59]: -0.108
glycan array binding signal (z-score) [60]: -0.292
glycan array binding signal (z-score) [61]: 0.008
glycan array binding signal (z-score) [62]: 0.008
glycan array binding signal (z-score) [63]: 0.404
glycan array binding signal (z-score) [64]: -0.187
glycan array binding signal (z-score) [65]: 0.087
glycan array binding signal (z-score) [66]: 0.055
glycan array binding signal (z-score) [67]: -0.382
glycan array binding signal (z-score) [68]: 0.344
glycan array binding signal (z-score) [69]: -0.065
glycan array binding signal (z-score) [70]: 9.55
glycan array binding signal (z-score) [71]: 10.2
glycan array binding signal (z-score) [72]: 3.57
glycan array binding signal (z-score) [73]: 0.855
glycan array binding signal (z-score) [74]: 0.661
glycan array binding signal (z-score) [75]: 0.915
